# From the supplement of paper PMC3334620
# Over roughly 33,000 sequences, “E-score (-0.5 to 0.5)” has its median near -0.041; the highest 2% begin near 0.37. Some of the results follow.
# Biological target: T1, Ecm22 (UniProt Q05958)
# T1 sequence: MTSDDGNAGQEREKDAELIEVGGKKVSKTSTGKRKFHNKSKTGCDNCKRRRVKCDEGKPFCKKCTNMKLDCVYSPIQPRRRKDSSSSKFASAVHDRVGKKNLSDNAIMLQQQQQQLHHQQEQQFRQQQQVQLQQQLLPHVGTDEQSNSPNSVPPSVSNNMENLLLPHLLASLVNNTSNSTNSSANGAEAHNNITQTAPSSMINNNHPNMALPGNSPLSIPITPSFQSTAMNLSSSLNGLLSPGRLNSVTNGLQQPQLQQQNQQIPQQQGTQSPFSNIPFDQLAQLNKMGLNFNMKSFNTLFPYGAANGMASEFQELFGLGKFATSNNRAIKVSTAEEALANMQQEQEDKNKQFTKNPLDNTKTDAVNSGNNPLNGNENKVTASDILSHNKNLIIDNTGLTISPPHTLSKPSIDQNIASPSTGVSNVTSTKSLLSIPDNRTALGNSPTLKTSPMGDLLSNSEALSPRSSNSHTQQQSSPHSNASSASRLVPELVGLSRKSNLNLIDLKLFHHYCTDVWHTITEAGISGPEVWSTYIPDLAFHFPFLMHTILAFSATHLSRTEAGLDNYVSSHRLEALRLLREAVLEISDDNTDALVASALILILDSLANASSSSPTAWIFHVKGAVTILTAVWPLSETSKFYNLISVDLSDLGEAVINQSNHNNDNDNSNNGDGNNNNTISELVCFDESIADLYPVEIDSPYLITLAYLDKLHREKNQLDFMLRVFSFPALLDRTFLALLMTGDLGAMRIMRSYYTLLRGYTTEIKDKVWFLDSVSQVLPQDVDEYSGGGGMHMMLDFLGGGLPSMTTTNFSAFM
# Assay: PBM E-score (8-mer binding enrichment) (E-score (-0.5 to 0.5)); higher = stronger / more preferred TF binding; most listed sequences are background and not binding sites
# Conditions: protein concentration: 200 nM; construct: GST-full length
# How it was run: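 Yeast transcription factors carrying a GST tag, as full-length proteins or DNA-binding domains, were produced by PURExpress in vitro transcription/translation. About 100-200 nM protein was applied to universal all-10-mer Agilent arrays, double-stranded by primer extension on fresh or once-stripped slides. Bound protein was detected with fluorescent anti-GST, and scans were normalised with masliner. The Universal PBM Analysis Suite gave each ungapped eight-base word, pooled with its reverse complement, an E-score, a modified Wilcoxon-Mann-Whitney statistic.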
row,Sequence,PBM E-score
1,GGGCCCCC,-0.299
2,AGCGTACG,0.351
3,AGGGTCAT,-0.101
4,AACGTCGT,0.37
5,GTGTAGTA,0.0105
6,CTGGCTGA,-0.173
7,AGGTAGGA,-0.223
8,GACCTAAA,0.202
9,ACACGATA,0.152
10,GAAAGCAA,0.156
11,TGGTCCAA,-0.233
12,CTAGGGAG,-0.147
13,AAGTGCCA,-0.157
14,GTTGTGGA,0.0197
15,GGATGCAA,-0.0722
16,CGAAAAAC,0.205
17,CCCGTCCC,-0.203
18,CAAGGCTC,-0.267
19,GTAACTGA,-0.0854
20,CGAGCATA,0.217
21,CATTACAA,-0.00807
22,AAACTGGA,-0.124
23,CAGTATGG,0.0519
24,TCAACCGA,0.24
25,CCACAGTC,-0.189

row,Sequence,PBM E-score
1,CAGCGTAA,0.0696
2,CGATCGTC,0.104
3,AAACATAT,0.185
4,CCGTGAGC,-0.134
5,ACCGTTCC,0.434
6,AGAGACGA,0.121
7,GCAGTGGC,-0.119
8,CACCAGTA,-0.342
9,ATAGGGGC,-0.237
10,GAACTGGC,-0.125
11,AGAAGAGC,-0.129
12,CCGAATCG,0.206
13,AGACCACA,-0.157
14,ACTACGCG,0.0858
15,AAACGTCG,0.318
16,AATTATGT,-0.118
17,AGATCGCA,0.121
18,AACAGTCC,-0.255
19,AGGAAGCG,0.121
20,GGCGGGCA,-0.264
21,ACGGACCT,0.164
22,CCGCACCC,0.00227
23,CGCCGACC,-0.0626
24,ACGCCCAG,-0.143
25,CGAAGAGA,0.195

row,Sequence,PBM E-score
1,AGGCATCA,-0.308
2,TCAGATAA,-0.112
3,AGAAAGCT,-0.0203
4,CCGCTAGA,-0.246
5,CTGGATGA,-0.2
6,GGGACTGA,-0.253
7,AGAAGGTG,-0.0146
8,GGGGTAAA,-0.0088
9,AGTAGGAG,-0.327
10,AATCCGTA,0.207
11,GCACCCTA,-0.149
12,AATCTTTC,-0.042
13,GTATGAAC,0.234
14,AATCACTG,0.0296
15,GCTGGGAC,-0.174
16,ACACTCGG,0.209
17,ATACACTG,0.0426
18,GACATACC,-0.182
19,AGGTCTGG,-0.203
20,AAGACACT,-0.00082
21,CGCGAGCG,0.176
22,ATGAGAAT,-0.0978
23,ATATACCC,-0.0184
24,AGTTCTTA,-0.125
25,CGCACGAG,-0.0614

row,Sequence,PBM E-score
1,CTATACAG,0.0413
2,CACGTCTA,-0.185
3,GGTTATAC,0.352
4,CACTGCTC,-0.159
5,CGGTGCGC,-0.0201
6,GGCTCTGA,-0.157
7,ATCACTTA,-0.064
8,GTGGGGCA,0.0451
9,ATTAATCG,0.207
10,TCTCATCA,-0.216
11,CTGTAGGC,-0.209
12,CTTACTTA,-0.194
13,CACGTTAC,-0.046
14,CTACACTA,-0.074
15,GGTGTAAA,-0.139
16,ATAGTTAC,0.0999
17,AACCAACC,-0.138
18,ACAGGTCG,-0.0344
19,AATTGTGG,-0.112
20,CTACGGCA,0.1
21,GATTTAAC,0.0377
22,GTCGTTCA,0.448
23,CCGGCCAA,-0.11
24,GGTTTCTA,-0.0898
25,CTGTGTTA,0.0507

row,Sequence,PBM E-score
1,ATTATCCA,0.0479
2,CTACATAC,0.00127
3,CGGCGAGA,0.118
4,ATGCCACC,-0.143
5,ATTATAGC,-0.098
6,CCTGCATC,-0.0617
7,AATGCCAG,-0.221
8,ACGATACT,0.313
9,ATGCGTAG,0.00117
10,TATATGCA,-0.0352
11,CGCCAGCA,-0.0703
12,GTAGTAGA,0.0331
13,CAACAACA,-0.0129
14,CAGTGGAC,-0.178
15,ATGCCTCA,-0.104
16,CGGAGCAG,0.0775
17,GCTGGCGA,0.00693
18,TAGTCGAA,-0.0259
19,AGTACGAA,0.42
20,CCAATGTC,-0.155
21,ACCGGACC,0.238
22,GGTCAAAA,0.016
23,CCCAGGGC,-0.339
24,CATGGCTC,0.00071
25,CATGTGAA,-0.25

row,Sequence,PBM E-score
1,GGAATGTA,0.0494
2,GACTCTGC,-0.00998
3,CTACCTAA,-0.072
4,AGCTGGAC,-0.188
5,AAAACTAC,0.12
6,AACAGGAT,-0.258
7,AAAAGGAA,0.123
8,GGGCCAAC,-0.241
9,CTTTGGCA,-0.144
10,GCGTCCCC,-0.389
11,CATGGTGA,-0.036
12,CGCTCGAG,-0.0217
13,AGGGTGGC,-0.225
14,ACTCGCCT,0.00923
15,CTACTCCA,0.0216
16,GACTGAGA,0.0567
17,ACCGACCT,0.0975
18,CCCTAGTA,-0.126
19,CTCCACGC,-0.228
20,GATAACAA,-0.0404
21,GAAGACTA,-0.0278
22,GATGGCCC,-0.193
23,GCTACTTA,-0.102
24,ACTAACGG,-0.141
25,ATGGCGTA,0.182

row,Sequence,PBM E-score
1,CGACATAA,0.227
2,AGCTATAC,0.124
3,ACCGATGG,0.0239
4,GAAGTTGC,0.0168
5,CTCGCAGC,0.0777
6,GTAGGCCA,-0.0732
7,AGATGCTC,0.0786
8,CAGTGGCG,-0.168
9,ACGTGTTG,0.112
10,CGTCCCAG,-0.339
11,AACCTGAC,-0.0885
12,AGGACTCA,-0.0869
13,AGACCTCA,-0.228
14,ATGGCTCA,-0.138
15,AATGTCCT,-0.094
16,CGCATGCC,0.0989
17,CACGATCA,-0.00633
18,ACCTGCGG,-0.16
19,AGGTACTC,-0.0124
20,AGCTGAAA,-0.106
21,ACTCGTGC,0.0518
22,GAAGTTTA,0.0811
